According to the antibiotic and cytotoxicity screens of Wong et al. (2023):
This is one part of the list.

Tests used:
HSkMC = human skeletal muscle cells; assay: cytotoxicity call (relative viability < 0.9); details: 10 µM
HepG2 = assay: cytotoxicity call (relative viability < 0.9); details: 10 µM
S. aureus RN4220 = assay: growth inhibition call (relative growth <= 0.2); details: 50 µM

Structure (SMILES)	cytotoxicity call (HSkMC)	cytotoxicity call (HepG2)	growth inhibition call (S. aureus RN4220)
CC(C)C[C@@H](NC(=O)CCN)C(=O)O	inactive	active	inactive
COc1ccc(NC(=O)N(C)C[C@H]2Oc3ncc(C#CCN(C)C)cc3C(=O)N([C@@H](C)CO)C[C@@H]2C)cc1	inactive	inactive	inactive
CO[C@H](CN(C)C(=O)c1ccc2c(c1)OCO2)[C@H](C)CN([C@H](C)CO)S(=O)(=O)c1ccc(F)cc1	inactive	inactive	inactive
COc1ccc(CN(C)C[C@H]2Oc3ccc(NS(=O)(=O)c4c(C)noc4C)cc3C(=O)N([C@H](C)CO)C[C@@H]2C)cc1	inactive	inactive	inactive
C=CCC[C@@H](Cc1ccc(F)cc1)C(=O)OC[C@@H]1CCCN1C(=O)[C@@H](CC=C)CC(=O)N(CCO)Cc1ccccc1	inactive	inactive	inactive
Cc1ccc(S(=O)(=O)Nc2ccc3c(c2)C(=O)N(C)[C@H]2CC[C@H](CC(=O)NCCc4ccncc4)O[C@@H]2CO3)cc1	inactive	inactive	inactive
COc1ccc(CN(C)C[C@H]2OCCCC[C@@H](C)Oc3ccc(NC(=O)c4ccncc4)cc3C(=O)N([C@H](C)CO)C[C@H]2C)cc1	inactive	inactive	inactive
COc1ccc2c3c(n(c2c1)C)[C@@H](CO)N(C[C@]13CN(C1)C(=O)CN1CCOCC1)C(=O)Nc1ccc(cc1)F	inactive	inactive	inactive
Cc1noc(C)c1NC(=O)N(C)C[C@H]1OCCCC[C@H](C)Oc2ccc(NC(=O)Nc3ccccc3)cc2C(=O)N([C@H](C)CO)C[C@@H]1C	inactive	inactive	inactive
C[C@H](CO)N1C[C@H](C)[C@H](CN(C)Cc2ccc3c(c2)OCO3)OCCCC[C@H](C)Oc2ccc(NC(=O)Nc3cccc4ccccc34)cc2C1=O	active	active	inactive
CC(C)NC(=O)N(C)C[C@@H]1Oc2ccc(NC(=O)Cc3ccccc3)cc2C(=O)N([C@H](C)CO)C[C@H]1C	inactive	inactive	inactive
C[C@H](CO)N1C[C@H](C)[C@@H](CN(C)C(=O)Nc2ccc3c(c2)OCO3)Oc2c(NC(=O)Nc3cccc4ccccc34)cccc2C1=O	inactive	inactive	inactive
CCOC(=O)c1snc2c(=O)nc[nH]c12	inactive	inactive	inactive
C[C@@H]1CN([C@H](C)CO)C(=O)c2cc(NC(=O)Nc3cccc4ccccc34)ccc2O[C@@H](C)CCCCO[C@@H]1CN(C)Cc1ccccc1	inactive	inactive	inactive
Cc1noc(C)c1NC(=O)Nc1ccc2c(c1)CC(=O)N([C@@H](C)CO)C[C@H](C)[C@@H](CN(C)C(=O)NC(C)C)O2	inactive	inactive	inactive
COc1ccccc1NC(=O)N(C)C[C@H]1OCc2ccccc2-c2c(n(C)c3ccccc23)C(=O)N([C@@H](C)CO)C[C@@H]1C	inactive	inactive	inactive
O=C(Cc1ccccn1)NCC[C@H]1CC[C@@H](NC(=O)CN2CCOCC2)[C@@H](CO)O1	inactive	inactive	inactive
COc1ccc(C#Cc2cnc3c(c2)C(=O)N([C@H](C)CO)C[C@H](C)[C@H](CN(C)S(C)(=O)=O)O3)cc1OC	inactive	inactive	inactive
Cc1ccc(S(=O)(=O)N(C)C[C@H]2Oc3ccc(NC(=O)C4CC4)cc3CC(=O)N([C@H](C)CO)C[C@H]2C)cc1	inactive	inactive	inactive
C[C@H](CO)N1C[C@H](C)[C@@H](CN(C)Cc2ccc(C(=O)Nc3ccccc3N)cc2)Oc2ccc(NS(C)(=O)=O)cc2CC1=O	inactive	inactive	inactive
C[C@H]1CN([C@@H](C)CO)C(=O)c2cc(NS(C)(=O)=O)ccc2O[C@H]1CN(C)S(=O)(=O)c1ccccc1	inactive	inactive	inactive
C[C@H]1CN([C@@H](C)CO)C(=O)c2cc(NC(=O)Cc3ccccc3)ccc2O[C@@H]1CN(C)Cc1ccc(-c2ccccc2)cc1	inactive	active	inactive
C[C@H](CO)N1C[C@H](C)[C@@H](CN(C)C(=O)Nc2cccc3ccccc23)Oc2c(NS(=O)(=O)c3ccc(F)cc3)cccc2C1=O	inactive	inactive	inactive
CNCc1nc2ccsc2c(=O)[nH]1	inactive	inactive	inactive
C[C@H](CO)N1C[C@H](C)[C@H](CN(C)S(=O)(=O)c2cn(C)cn2)Oc2ccc(NC(=O)C3CCCCC3)cc2CC1=O	inactive	inactive	inactive
Cc1cccc(N2C[C@@H](N)CC2=O)c1	inactive	inactive	inactive
